Assay [1] deals with T1, huLAG-3-Fc (human LAG-3 extracellular domain fused to human IgG1 Fc fragment, R&D systems) (human, UniProt P18627 23-450).
T1 construct: extracellular domain; Bought from R&D Systems; also called human LAG-3-Fc fusion; not shown: human IgG1 Fc fragment
T1 sequence (looked up): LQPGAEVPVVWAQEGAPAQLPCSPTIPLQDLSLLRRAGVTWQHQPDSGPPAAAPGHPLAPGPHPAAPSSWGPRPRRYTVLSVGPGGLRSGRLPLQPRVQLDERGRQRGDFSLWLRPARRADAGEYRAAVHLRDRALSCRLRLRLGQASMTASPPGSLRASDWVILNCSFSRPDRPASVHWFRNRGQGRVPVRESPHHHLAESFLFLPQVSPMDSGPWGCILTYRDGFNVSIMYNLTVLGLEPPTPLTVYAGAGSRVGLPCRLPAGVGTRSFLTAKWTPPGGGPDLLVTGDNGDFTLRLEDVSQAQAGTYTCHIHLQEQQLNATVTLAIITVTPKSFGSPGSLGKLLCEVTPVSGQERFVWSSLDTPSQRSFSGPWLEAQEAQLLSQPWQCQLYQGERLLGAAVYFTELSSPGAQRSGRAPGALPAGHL
Briefly: SPR, Fc-captured target, mutein analyte. How it is done:
The anti-human IgG Fc antibody (GE Healthcare) was immobilized on a CM5 sensor chip using standard amine chemistry: the carboxyl groups on the chip were activated using 1-ethyl-3-(3-dimethylaminopropyl)-carbodiimide (EDC) and N-hydroxysuccinimide (NHS). […] Residual non-reacted NHS-esters were blocked by passing a solution of 1M ethanolamine across the surface. The reference channel was treated in an analogous manner.
All measurements were performed at 25° C. […] Prior to the protein measurements, three startup cycles were performed for conditioning purposes. […] Double referencing was used and the 1:1 binding model was used to fit the raw data.
(In general: Surface plasmon resonance follows binding to a sensor surface in real time, without labels.)

Assay [2] concerns the target T2, cynomolgus LAG-3 on CHO cells stably transfected with cyLAG-3 (CHO-cyLAG-3) (cynomolgus monkey).
T2 construct: whole, on cells; also called CHO::cynomolgus LAG-3
Put plainly: FACS on transfected CHO cells.

Assay [3] concerns the target T3, human LAG-3 on CHO cells stably transfected with huLAG-3 (CHO-huLAG-3) (human, UniProt P18627 23-525).
T3 construct: whole, on cells; also called CHO::human LAG-3
T3 sequence (looked up): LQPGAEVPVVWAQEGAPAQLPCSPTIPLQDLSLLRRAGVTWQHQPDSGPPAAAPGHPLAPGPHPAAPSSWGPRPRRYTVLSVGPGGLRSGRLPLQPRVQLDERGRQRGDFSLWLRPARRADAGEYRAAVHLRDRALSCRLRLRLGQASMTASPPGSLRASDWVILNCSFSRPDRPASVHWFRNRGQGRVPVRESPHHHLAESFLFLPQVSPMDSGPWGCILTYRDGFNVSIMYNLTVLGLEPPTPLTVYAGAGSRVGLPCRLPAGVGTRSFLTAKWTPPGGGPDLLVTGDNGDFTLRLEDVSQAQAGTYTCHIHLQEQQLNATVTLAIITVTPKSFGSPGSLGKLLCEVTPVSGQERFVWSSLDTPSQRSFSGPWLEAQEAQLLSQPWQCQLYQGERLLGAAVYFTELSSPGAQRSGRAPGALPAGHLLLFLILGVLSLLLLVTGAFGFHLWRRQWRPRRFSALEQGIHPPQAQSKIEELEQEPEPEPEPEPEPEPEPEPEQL
Put plainly: FACS on transfected CHO cells.

Assay [4] deals with T1, huLAG-3-Fc (human LAG-3 extracellular …). Briefly: competition FACS, 3 nM huLAG-3-Fc vs MHC class II on A375 cells.

The text below walks through data of patent publication US20190345207A1 (Pieris, published 2019).

B1: lipocalin mutein SEQ ID NO: 57 (designed binder)
chain: TSDQEIQDVSGTWYLKAMTVDSDCFWIDDVSVTPMTLTTLRGGNLEAKVTMDIFGFWQEVEAVLGKTDRPGKYTAGGGKHAAYIIRSHVKDHYIFYSEGECAGYPVPGVWLVGRDPKNNLEALEDFEKAAGARGLSTESILIPRQSETSAPGSAWSHPQFEK
notes: also called optimized LAG-3 specific lipocalin mutein
As for B1, in assay [1], the Kd – broadly, the constant that tells how readily two partners part at equilibrium – stood at 26 pM; the koff (as a rule, a measure of how fast the partners let go of each other) is 5.81e-05 s⁻¹; the kon (as a rule, the rate constant with which the complex forms) came out at 2.21e+06 M⁻¹ s⁻¹.

B2: lipocalin mutein SEQ ID NO: 66 (designed binder)
chain: ASDEEIQDVSGTWYLKAMTVDSDCFWIDDVSVTPMTLTTLRGGNLEAKVTMDIFGFWQDVEAVLEKTDRPGKYTAGGGKHVAYIIRSHVKDHYIFYSEGECAGYPVPGVWLVGRDPKNNLEALEDFEKAAGARGLSTESILIPRLSETSSPGSAWSHPQFEK
notes: as for B1
In assay [1], B2 showed a Kd of 79.3 pM, a koff of 0.00559 s⁻¹ and a kon of 7.05e+07 M⁻¹ s⁻¹.

B3: lipocalin mutein SEQ ID NO: 61 (designed binder)
chain: TSNQQIQNVSGTWYLKAMTVDSDCFWIDDVSVTPMTLTTLRGGNLEAKVTMDIFGFWQEVEAVLGKTDRPGKYTAGGGKHAAYIIRSHVKDHYIFYSEGECAGYPVPGVWLVGRDPKNNLEALEDFEKAAGARGLSTESILIPRQSETSAPGSAWSHPQFEK
notes: as for B1
B3: in assay [1], the Kd turned out to be 118 pM, the koff came out at 0.0019 s⁻¹ and the kon came out at 1.61e+07 M⁻¹ s⁻¹.

B4: lipocalin mutein SEQ ID NO: 63 (designed binder)
chain: ASDEEIQDVSGTWYLKAMTVDSDCFWIDDVSVTPMTLTTLRGGNLEAKVTMDIFGFWQEVEAVLERTDRPGKYTAGGGKHVAYIIRSHVKDHYIFYSEGECAGYPVPGVWLVGRDPKNNLEALEDFEKAAGARGLSTESILIPRQSETSSPGSAWSHPQFEK
notes: as for B1
In assay [1], B4 came in with a Kd of 110 pM, a koff of 0.00722 s⁻¹ and a kon of 6.59e+07 M⁻¹ s⁻¹.

B5: lipocalin mutein SEQ ID NO: 64 (designed binder)
chain: ASDEEIQDVSGTWYLKAMTVDSDCFWIDDVSVTPMTLTTLEGGNLEAKVTMDIFGFCQEVEAVLERTDEPGKYTADGGKHVAYIIRSHVKDHYIFYSEGECAGYPVPGVWLVGRDPKNNLEALEDFEKAAGARGLSTESILIPRQSETCSPGSAWSHPQFEK
notes: as for B1
For B5, in assay [1], the Kd was determined as 235 pM, the koff was 0.00785 s⁻¹ and the kon was found to be 3.34e+07 M⁻¹ s⁻¹.

B6: lipocalin mutein SEQ ID NO: 65 (designed binder)
chain: TSDEEIQDVSGTWYLKAMTVDSDCFWIDDVSVTPMTLTTLEGGNLEAKVTMDIFGFWQEVEAVLERTDEPGKYTADGGKHVAYIIRSHVKDHYIFYSEGECAGYPVPGVWLVGRDPKNNLEALEDFEKAAGARGLSTESILIPRQSETSSPGSAWSHPQFEK
notes: as for B1
With B6, in assay [1], the Kd is 195 pM, the off-rate constant (koff) came out at 0.00501 s⁻¹ and the kon was found to be 2.58e+07 M⁻¹ s⁻¹.

B7: lipocalin mutein SEQ ID NO: 68 (designed binder)
chain: TSDEEIQDVSGTWYLKAMTVDSDCFWIDDVSVTPMTLTTLEGGNLEAKVTMDIFGFWQDVEAVLEKTDEPGKYTADGGKHVAYIIRSHVKDHYIFYSEGECAGYPVPGVWLVGRDPKNNLEALEDFEKAAGARGLSTESILIPRLSETSSPGSAWSHPQFEK
notes: as for B1
In assay [1], B7 showed a Kd of 158 pM, a koff of 0.00515 s⁻¹ and a kon of 3.25e+07 M⁻¹ s⁻¹.

B8: lipocalin mutein SEQ ID NO: 67 (designed binder)
chain: ASDEEIQDVSGTWYLKAMTVDSDCFWIDDVSVTPMTLTTLEGGNLEAKVTMDIFGFCQDVEAVLEKTDEPGKYTADGGKHVAYIIRSHVKDHYIFYSEGECAGYPVPGVWLVGRDPKNNLEALEDFEKAAGARGLSTESILIPRLSETCSPGSAWSHPQFEK
notes: as for B1
Turning to B8, in assay [1], the affinity, expressed as Kd, was 213 pM; the koff was found to be 0.00516 s⁻¹; the kon was 2.43e+07 M⁻¹ s⁻¹.

B9: lipocalin mutein SEQ ID NO: 7 (designed binder)
chain: ASDEEIQDVSGTWYLKAMTVDSDCFWIDDVSVTPMTLTTLEGGNLEAKVTMDIFGFWQEVKAVLEKTDEPGKYTADGGKHVAYIIRSHVKDHYIFYSEGECAGYPVPGVWLVGRDPKNNLEALEDFEKAAGARGLSTESILIPRQSETSSPG
notes: Parental LAG-3 specific hTlc mutein; also called parental lipocalin mutein
In the case of B9, the EC50 (usually the concentration needed to bring the measured effect to its halfway point) in assay [2] was determined as 319000 pM. In assay [3], this molecule came in with an EC50 of 1330 pM. Besides, in assay [1], the affinity, expressed as Kd, was 320 pM; the dissociation rate constant (koff) was found to be 0.00189 s⁻¹; the kon turned out to be 5.86e+06 M⁻¹ s⁻¹. For the same molecule, the IC50 (commonly the concentration needed to halve the response being measured) in assay [4] was 220 pM.

B10: lipocalin mutein SEQ ID NO: 24 (designed binder)
chain: ASDEEIQDVPGTWYLKAMTVSSEDPEMTLESVTPMTLTTLEGGNLEARVTVLIDGRCQEVKNVLEKTDEPGKYTEDGGKYVDYIIRSHVKDHYIFYFEGEGQGTPGRMVALVGRDPTNNLEALEDFEKAAGARGLSTESILIPRQSETCSPGSAWSHPQFEK
notes: as for B1
Turning to B10, the response in assay [2] was half-maximal at 34900 pM (EC50). Besides, a half-maximal response in assay [3] (EC50) required 2350 pM. Also, in assay [1], the Kd is 676 pM, the koff came out at 0.00014 s⁻¹ and the kon is 207000 M⁻¹ s⁻¹. For the same molecule, the IC50 in assay [4] was found to be 1010 pM.

B11: lipocalin mutein SEQ ID NO: 20 (designed binder)
chain: ASDEEIQDVPGTWYLKAMTVSDEDPEMTLESVTPMTLTTLEGGNLEARVTVLIDGRCQEVKNVLEKTDEPGKYTEDGGKYVDYIIRSHVKDHYIFYFEGEGHGTPGRMVALVGRDPTNNLEALEDFEKAAGARGLSTESILIPRQSETCSPGSAWSHPQFEK
notes: as for B1
As for B11, the EC50 in assay [2] came out at 29800 pM. Besides, the EC50 in assay [3] was determined as 1970 pM. In assay [1], this molecule yielded a Kd of 722 pM, a koff of 0.000135 s⁻¹ and a kon of 188000 M⁻¹ s⁻¹. The molecule further returned an IC50 in assay [4] of 1700 pM.

B12: lipocalin mutein SEQ ID NO: 21 (designed binder)
chain: ASDEEIQDVPGTWYLKAMTVSEEDPELTLESVTPMTLTTLEGGNLEARVTVLIDGRCQEVKNVLEKTDEPGKYTEDGGKYVDYIIRSHVKDHYIFYFEGEGQGTPGRMVALVGRDPTNNLEALEDFEKAAGARGLSTESILIPRQSETCSPGSAWSHPQFEK
notes: as for B1
For B12, the EC50 in assay [2] was 31600 pM. This molecule also showed an EC50 in assay [3] of 2520 pM. In assay [1], this molecule displayed a Kd of 718 pM, a koff of 0.000113 s⁻¹ and a kon of 157000 M⁻¹ s⁻¹. This molecule also returned an IC50 in assay [4] of 680 pM.

B13: lipocalin mutein SEQ ID NO: 22 (designed binder)
chain: ASDEEIQDVPGTWYLKAMTVSEEDPEMTLESVTPMTLTTLEGGNLEARVTVLIDGRCQEVKNVLEKTDEPGKYTEDGGKYVDYIIRSHVKDHYIFYFEGEGEGTPGRVVALVGRDPTNNLEALEDFEKAAGARGLSTESILIPRQSETCSPGSAWSHPQFEK
notes: as for B1
B13: in assay [2], the EC50 amounted to 33100 pM. Further, in assay [3], the midpoint of the response, the EC50, lay at 2230 pM. In assay [1], this molecule returned a Kd of 619 pM, a koff of 0.000145 s⁻¹ and a kon of 234000 M⁻¹ s⁻¹. The molecule further yielded an IC50 in assay [4] of 1110 pM.

B14: lipocalin mutein SEQ ID NO: 25 (designed binder)
chain: ASDEEIQDVPGTWYLKAMTVSAEDPEMTLESVTPMTLTTLEGGNLEARVTVLIDGRCQEVKNVLEKTDEPGKYTEDGGKYVDYIIRSHVKDHYIFYFEGEGKGTPGRMVALVGRDPTNNLEALEDFEKAAGARGLSTESILIPRQSETCSPGSAWSHPQFEK
notes: as for B1
Consider B14, for which a half-maximal effect in assay [2] (EC50) was put at 38900 pM. This molecule also returned an EC50 in assay [3] of 2550 pM. Besides, in assay [1], the Kd came out at 1290 pM, the koff was determined as 0.000142 s⁻¹ and the kon worked out at 110000 M⁻¹ s⁻¹. The same molecule returned an IC50 in assay [4] of 300 pM.

B15: lipocalin mutein SEQ ID NO: 23 (designed binder)
chain: ASDEEIQDVPGTWYLKAMTVSDEDPEMTLESVTPMTLTTLEGGNLEARVTVLIDGRCQEVKNVLEKTDEPGKYTEDGGKYVDYIIRSHVKDHYIFYFEGEGQGTPGRLVALVGRDPTNNLEALEDFEKAAGARGLSTESILIPRQSETCSPGSAWSHPQFEK
notes: as for B1
B15 showed an EC50 in assay [2] of 33600 pM. This molecule also came in with an EC50 in assay [3] of 3040 pM. Besides, in assay [1], binding was characterised by a dissociation constant (Kd) of 668 pM, the koff turned out to be 0.000105 s⁻¹ and the kon worked out at 158000 M⁻¹ s⁻¹. This molecule registered an IC50 in assay [4] of 630 pM.
